# According to the supplement of paper PMC10369915:
# The other results are listed elsewhere or left out. Rule as the data show it: active = 3.2 or more and inactive = the rest. Only a few entries rise above the background.
# Key:
# Experiment in all cases: enrichment score (SH2-bound / input frequency) (ratio); bacterial display of known human phosphotyrosine sites (pTyr-Var adds point mutants) read by sequencing; higher = stronger binding; tyrosines were phosphorylated by kinases first
# Conditions in all cases: peptide library: pTyr-Var
# SHP2 C-SH2 domain E139D = target: SHP2 C-SH2 domain E139D
# [1] = target: SHP2 C-SH2 domain wild-type
# SHP2 N-SH2 domain L43F = target: SHP2 N-SH2 domain L43F
# SHP2 N-SH2 domain T42A = target: SHP2 N-SH2 domain T42A
# SHP2 N-SH2 domain T52S = target: SHP2 N-SH2 domain T52S
# [2] = target: SHP2 N-SH2 domain wild-type
# 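Also: displayed peptides selected on beads carrying the immobilized SH2 domain, with library peptides lacking any tyrosine serving as negative controls.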
Binder,enrichment score (SHP2 C-SH2 domain E139D),enrichment score [1],enrichment score (SHP2 N-SH2 domain L43F),enrichment score (SHP2 N-SH2 domain T42A),enrichment score (SHP2 N-SH2 domain T52S),enrichment score [2]
ANLAKYGNPNE [BCHE_Y505_F502L],inactive: 0.698,inactive: 0.675,inactive: 0.679,inactive: 0.453,inactive: 0.573,inactive: 0.792
DDSSAYRSVDE [BCKDHA_Y345],inactive: 0.45,inactive: 0.403,inactive: 0.422,inactive: 0.476,inactive: 0.368,inactive: 0.663
DDSSAYCSVDE [BCKDHA_Y345_R346C],inactive: 0.463,inactive: 0.511,inactive: 0.368,inactive: 0.577,inactive: 0.583,inactive: 0.555
AGRSGYDNREI [BCL2_Y9_T7S],inactive: 0.519,inactive: 0.608,inactive: 0.61,inactive: 0.538,inactive: 0.556,inactive: 0.702
LKETGYVVERP [BCLAF1_Y466],inactive: 0.784,inactive: 0.677,inactive: 0.849,inactive: 0.792,inactive: 0.847,inactive: 0.906
HKETGYVVERP [BCLAF1_Y466_L461H],inactive: 0.733,inactive: 0.829,inactive: 0.753,inactive: 0.774,inactive: 0.911,inactive: 0.882
PGNIVYSSLCG [BCOR_Y90],inactive: 1.43,inactive: 1.52,inactive: 1.25,inactive: 2.25,inactive: 1.13,inactive: 1.42
LGNIVYSSLCG [BCOR_Y90_P85L],inactive: 1.28,inactive: 1.56,inactive: 1.41,inactive: 1.75,inactive: 1.22,inactive: 1.43
EEVGIYRMSGV [BCR_Y1089_V1091M],inactive: 0.727,inactive: 0.562,inactive: 0.656,inactive: 0.6,inactive: 0.524,inactive: 0.63
KVPELYEIHKE [BCR_Y554],inactive: 0.877,inactive: 0.765,inactive: 0.814,inactive: 0.754,inactive: 0.77,inactive: 0.799
IHKEFYDGLFP [BCR_Y561],inactive: 0.846,inactive: 1.2,inactive: 1.05,inactive: 0.931,inactive: 1.27,inactive: 1.19
IHTEFYDGLFP [BCR_Y561_K558T],inactive: 1.23,inactive: 0.939,inactive: 1.3,inactive: 0.815,inactive: 1.2,inactive: 1.02
GKTQQYECKWY [BCR_Y751_D752E],inactive: 0.701,inactive: 0.76,inactive: 0.692,inactive: 0.624,inactive: 0.619,inactive: 0.906
WRPFGYPCRRR [BCS1L_Y181_R183C],inactive: 0.226,inactive: 0.263,inactive: 0.261,inactive: 0.255,inactive: 0.281,inactive: 0.274
WRPFGYPRCRR [BCS1L_Y181_R184C],inactive: 0.193,inactive: 0.221,inactive: 0.19,inactive: 0.183,inactive: 0.276,inactive: 0.192
RTLIRYANLSN [BEST1_Y131_G135S],inactive: 2.14,active: 3.95,active: 3.96,active: 9.21,active: 5.37,inactive: 1.77
RTLIRYAKLGN [BEST1_Y131_N133K],inactive: 0.837,inactive: 0.55,inactive: 0.726,inactive: 1.79,inactive: 0.721,inactive: 0.824
VSTAVYKRFPS [BEST1_Y148],inactive: 0.833,inactive: 0.705,inactive: 0.71,inactive: 0.644,inactive: 0.748,inactive: 0.9
VSTKVYKRFPS [BEST1_Y148_A146K],inactive: 0.562,inactive: 0.634,inactive: 0.424,inactive: 0.717,inactive: 0.613,inactive: 0.614
